Assay results reported in PubChem BioAssay AID1240 (Sanford-Burnham Center for Chemical Genomics, 2008).
The whole screen tested about 50,000 compounds, of which about 800 (1.6%) showed an effect of 50% or more. The list shows a part of the results.

Each compound was assayed against Bcl-2-like protein 10 (Homo sapiens) (UniProt Q9HD36) (assay: TR3 peptide-Bcl-B binding displacers, biochemical primary FP assay, phenotype converters (AID 1240;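 further: 0% = Bcl-B with tracer peptide and DMSO and 100% = tracer peptide lacking Bcl-B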)). Conditions: GST-Bcl-B / FITC-TR3 peptide fluorescence polarization; stronger effect = higher value; compound at 3.75 mg/L.
UniProt Q9HD36, sequence (Q9HD36 whole entry, looked up): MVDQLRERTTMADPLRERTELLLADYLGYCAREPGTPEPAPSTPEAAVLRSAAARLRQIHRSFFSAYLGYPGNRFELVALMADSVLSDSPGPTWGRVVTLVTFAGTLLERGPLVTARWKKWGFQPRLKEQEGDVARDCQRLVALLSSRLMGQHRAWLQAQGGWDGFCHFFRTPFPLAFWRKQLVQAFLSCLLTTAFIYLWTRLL

| Compound | displacement |
| --- | --- |
| COc1ccc(/C=C2\SC(=O)N(CC(=O)Nc3ccccc3Cl)C2=O)cc1OC | 7.8% |
| CC(=O)Oc1c(C=C(C#N)C#N)[nH]c2ccccc12 | 34% |
| Cc1ccc(C(=O)NN2C(=O)/C(=C/c3ccc4c(c3)OCO4)SC2=S)cc1 | -27.1% |
| CCSc1nncn1/N=C/c1ccc(OC)c(OC)c1 | -22.4% |
| CCC1CCc2c(sc(NC(=O)c3cccnc3)c2C(N)=O)C1 (stereo not drawn) | 9.6% |
| COc1ccccc1NC(=O)c1c(NC(=O)Cc2ccccc2)sc2c1CCCCC2 | 9.3% |
| O=C(NCCN1CCN(C(=O)Nc2cccc(Cl)c2)CC1)Nc1cccc(Cl)c1 | -5.3% |
| O=C(O)c1ccccc1-c1ccccc1/C=N/O | 4.9% |
| CCCC(=O)c1ccc(N2CCN(C(=O)c3ccccc3)CC2)c(F)c1 | -12.9% |
| NC(=O)c1cccc(NC(=O)CCC(=O)O)c1 | -8.5% |
| Cc1cc(OCC(=O)Nc2ccc(Cl)cn2)ccc1Br | 7.7% |
| CCOc1cc(/C=C2/C(=O)NC(=O)N(c3cccc(C)c3)C2=O)cc(Br)c1O | -4.1% |
| COc1ccc(-c2cc(C(F)(F)F)n3ncc(C(N)=O)c3n2)cc1OC | 36.4% |
| CCC(C)c1ccc(OCCOc2ccc(/C=C3/SC(=S)N(C)C3=O)cc2OC)cc1 (stereo not drawn) | -22.2% |
| COc1ccccc1OCC(=O)Nc1ccc(-c2nc3ccccc3[nH]2)cc1 | 2.1% |
| Cc1c(C(=O)Nc2ccc3oc(-c4ccncc4)nc3c2)oc2ccccc12 | 35.1% |
| CCN(c1ccccc1)S(=O)(=O)c1c(C)cc(C)cc1C | -8.7% |
| O=C1/C(=C\c2cccc([N+](=O)[O-])c2)SC(=S)N1c1cccc(C(F)(F)F)c1 | 13.3% |
| CNC(=O)C(=O)Nc1cccc2ccccc12 | 12.4% |
| COc1ccc(C(=O)NC(C)C2COc3ccccc3O2)c(OC)c1 (stereo not drawn) | 0.5% |
| COc1ccccc1NC1=C(Cl)C(=O)N(c2ccc(C)cc2C)C1=O | 8.3% |
| O=[N+]([O-])c1ccc(F)c(NS(=O)(=O)c2cc(Cl)ccc2Cl)c1 | -1.9% |

| Compound | displacement |
| --- | --- |
| CCCS(=O)(=O)c1c(S(=O)(=O)CCC)c2ccc(C(C)=O)cn2c1C(=O)OC | -4.7% |
| O=[N+]([O-])c1ccc(NC(=S)Nc2ccccc2)c(O)c1 | 16.4% |
| COc1ccc(OCC(=O)n2nc(C)cc2C)cc1 | -0.6% |
| COc1ccccc1OCCCCCn1ccnc1 | 3.2% |
| CN(C)c1ccc(/C=C2\N=C(c3cc4ccccc4oc3=O)OC2=O)cc1 | 0% |
| S=C(NCc1cccnc1)Nc1ccc(Cl)cc1Cl | -5.6% |
| Cc1c(C)c2ccc(OCC(=O)C(C)(C)C)c(C)c2oc1=O | 5.4% |
| CSc1ccccc1NC(=O)Cn1nc(C(F)(F)F)cc1C | -0.7% |
| O=C(CCCN1C(=O)/C(=C\c2cccs2)SC1=S)Nc1nc2ccccc2s1 | 12.7% |
| O=C1C(=O)N(Cc2cccnc2)C(c2cccc(F)c2)/C1=C(\O)c1ccccc1 (stereo not drawn) | -10.3% |
| CCCC1=NN2C(=N)/C(=C/c3ccc(-c4ccc(Cl)cc4Cl)o3)C(=O)N=C2S1 | 74.7% |
| CC(C)CN1C(=O)/C(=C/c2ccc(C(C)(C)C)cc2)SC1=S | 8.1% |
| COc1cccc(C(=O)Nc2cccc3c2C(=O)N(c2ccccc2)C3=O)c1 | 0.6% |
| Cc1ccc(S(=O)(=O)n2c(C)nc3ccccc32)cc1 | 6.6% |
| CCCCNCCOc1cccc(Cl)c1Cl | -2.8% |
| Cc1[nH]c2ccccc2c1C(=O)/C=C/c1c2ccccc2cc2ccccc12 | 4.6% |
| COc1ccccc1NC(=O)C(=O)NNC(=O)COc1ccc(Cl)cc1 | -3.5% |
| O=C(N/N=C/c1c(O)ccc2ccccc12)c1cc(C23CC4CC(CC(C4)C2)C3)[nH]n1 | -5.2% |
| Cc1ccn2c(-c3csc(Nc4cccc(O)c4)n3)c(C)nc2c1 | -21.7% |
| COc1ccc(C(=O)ON=C2c3ccccc3-c3ccccc32)cc1OC | 9.9% |
| Cc1ccc(/C(O)=C/c2nc3ccccc3[nH]c2=O)o1 | 130% |
| Cc1cccc(OCCOCCN2CCC(C)CC2)c1 | -6.3% |

| Compound | displacement |
| --- | --- |
| O=C(Nc1ccc(Cl)cc1)c1cccc(S(=O)(=O)NCc2ccccc2)c1 | -11.1% |
| Brc1cccc(C=NN2CCN(Cc3ccccc3)CC2)c1 | -6.7% |
| COc1ccc(N(CC(=O)Nc2ccc(C)cc2C)S(=O)(=O)c2ccc(C)cc2)c(OC)c1 | 9.8% |
| O=C(NCCCN1CCOCC1)NC1CCCCC1 | 5.7% |
| CC1=C(C(=O)Nc2ccc(Cl)cc2)C(c2ccccc2Br)NC(=O)N1 (stereo not drawn) | 1.4% |
| Cc1ccc(NC(=O)/C=C/c2ccc(C)o2)cc1 | 3.6% |
| CCOC(=O)c1c(NC(=O)c2ccc(S(=O)(=O)N3CCCCCC3)cc2)sc2c1CCC2 | -12.9% |
| Cc1cc(C)cc(N2C(=O)NC(=O)/C(=C\c3ccsc3)C2=O)c1 | -7.8% |
| O=c1c(=Nc2nn[nH]n2)c(=O)c2ccccc12 | -7.2% |
| Cc1ccc(C2C3=C(CC(C)(C)CC3=O)N=C3c4ccccc4C(=O)C32)cc1 (stereo not drawn) | 6.9% |
| CCCCCCCCNC(=O)CCC(=O)O | 14.1% |
| CCOC(=O)C1=C(C)NC(=O)NC1c1ccccc1Cl (stereo not drawn) | 3.8% |
| Cc1ccc(COc2ccc3oc(C)c(C(=O)O)c3c2)cc1 | 7.3% |
| COc1ccc(NC(=O)COc2ccc(C)cc2Br)cc1Cl | -7.9% |
| COc1cc(C=C2C(=O)NC(=O)NC2=O)ccc1OC(=O)c1cc(F)c(F)cc1Cl | 3.9% |
| O=C1/C(=C/c2ccc(Cl)cc2Cl)SC(=S)N1C1CCS(=O)(=O)C1 (stereo not drawn) | 7.1% |
| COC(=O)c1ccc(NC(=O)C2CC2(c2ccccc2)c2ccccc2)cc1 (stereo not drawn) | -7.7% |
| COc1ccc(N2C(=O)NC(=O)/C(=C\C=C\c3ccccc3[N+](=O)[O-])C2=O)cc1 | -2.4% |
| O=C1C(Cl)=C/C(=N\S(=O)(=O)c2ccc(Cl)cc2)C(Cl)=C1Cl | 16.2% |
| Cc1cc(C)cc(NC(=O)C(Cc2c[nH]c3ccccc23)NC(=O)Oc2ccccc2)c1 (stereo not drawn) | -10.2% |
| O=C1SCCC1NS(=O)(=O)c1cc(Cl)ccc1Cl (stereo not drawn) | -12.7% |
| CCC(=NCc1ccccc1)c1c(C(F)(F)F)[nH]n(-c2nc3ccccc3s2)c1=O | -13.5% |

| Compound | displacement |
| --- | --- |
| CC1=C(C(=O)OC2CCCC2)C(c2cc3c(cc2[N+](=O)[O-])OCO3)NC(=O)N1C (stereo not drawn) | 17.2% |
| CC(=O)c1ccc(NC(=S)NC(NC(=O)c2ccccc2Br)C(Cl)(Cl)Cl)cc1 (stereo not drawn) | 10.2% |
| Cc1ccc(NS(=O)(=O)c2cccc3c2C(=O)c2ccccc2C3=O)cc1C | 13% |
| COc1ccc([N+](=O)[O-])cc1-c1ccc(C=C2C(=O)c3ccccc3C2=O)o1 | -7.5% |
| CCOC(=O)c1ccccc1NC(=O)/C=C/c1ccc(OC)c(Br)c1 | 7.3% |
| Cc1ccc(N2NC(=O)/C(=C\c3ccc(Br)cc3)C2=O)cc1 | 1.8% |
| O=C(O)C1C2CCC(O2)C1C(=O)NCc1ccc2c(c1)OCO2 (stereo not drawn) | -5.5% |
| O=C(COc1ccc2ccccc2c1)Nc1cccc(NC(=O)c2ccc(Cl)cc2Cl)c1 | 0.4% |
| O=C(Nc1ccccn1)c1ccc(-c2ccccc2)cc1 | -1.1% |
| CC(C)(C)c1ccc(/C=C2\NC(=S)NC2=O)cc1 | -20.2% |
| O=C(CCc1ccccc1)N/N=C/c1ccc(F)cc1 | 12.2% |
| CC(=O)Nc1ccc(NC(=O)c2cc3cc([N+](=O)[O-])ccc3oc2=O)cc1 | 17.5% |
| Cc1c(Cl)cccc1NC(=O)C(=O)NCc1ccc(F)cc1 | -1.8% |
| CCOC(=O)c1c(NC(=O)c2cccs2)sc(C(=O)Nc2ccc(OC)cc2OC)c1C | -5.8% |
| CSc1nc2sc3c(c2c(=O)n1Cc1ccccc1)CCN(C)C3 | -6.8% |
| Cc1cc(NC(=O)c2nn3c(c2Cl)NC(c2ccc(Br)cc2)CC3C(F)(F)F)no1 (stereo not drawn) | 0.5% |
| COc1ccc(/C=C(\NC(=O)c2ccccc2)C(=O)NCCCn2ccnc2)cc1 | -15% |
| CS(=O)(=O)c1ccc2nc(NC(=O)c3ccc([N+](=O)[O-])cc3)sc2c1 | 8% |
| CCOc1ccc(C(O)Cc2nc3ccccc3n2C)cc1 (stereo not drawn) | -7.9% |
| CN1C(=O)C(=Cc2ccc(-c3ccccc3C(=O)O)o2)C(=O)N(C)C1=O | 11.4% |
| CCOc1cccc(C(=O)Nc2ccc(NC(=O)c3ccco3)c(OC)c2)c1 | 12.4% |
| CCc1nnc(NS(=O)(=O)c2ccc(NC(=O)c3ccccc3[N+](=O)[O-])cc2)s1 | -2.8% |

| Compound | displacement |
| --- | --- |
| O=C(N/N=C/c1ccc([N+](=O)[O-])cc1)c1cc(C2CC2)[nH]n1 | -5.9% |
| O=C(CSc1nc2ccccc2[nH]1)Nc1ccccc1F | -9.7% |
| CCN1C(=O)c2cccc3c(NC(=O)c4cccs4)ccc1c23 | -29.9% |
| O=C(CSc1ncc(-c2ccccc2)[nH]1)Nc1ccccc1 | 17.3% |
| COc1cc(/C=C2\SC(=Nc3cccc(Cl)c3C)NC2=O)ccc1O | -18.2% |
| Cc1ccccc1S(=O)(=O)N=C1C=CC(=O)C(Cl)=C1 | 19.5% |
| N#Cc1ccccc1OCC(=O)N/N=C/C=C/c1ccc([N+](=O)[O-])cc1 | 11.6% |
| COc1ccc(-c2nnc(NC(=O)c3ccco3)s2)cc1OC | 42.1% |
| Nc1nnc(SCC(=O)NC2CCCC2)s1 | -9.1% |
| O=C1C(=O)N(CCc2ccccc2)c2ccc(Br)cc21 | -3.4% |
| O=C(Nc1cccc2ccccc12)/C(=C\c1cccc([N+](=O)[O-])c1)NC(=O)c1cccs1 | -5% |
| CC1=NOC(=O)/C1=C/c1ccc(OCc2ccc(F)cc2)cc1 | 9.5% |
| COc1ccc(-c2cc3ccccc3oc2=O)cc1OC | 7.8% |
| COc1cc(/C=C2/SC(=S)N(C)C2=O)ccc1OCCSc1ccc(Cl)cc1 | 43.6% |
| CN1CCN(C(=O)c2cccc(F)c2)CC1 | -10.4% |
| COc1ccc(OC)c(NC(=O)CN(c2ccccc2Cl)S(C)(=O)=O)c1 | 1.3% |
| Cc1cc(C)nc(NS(=O)(=O)c2ccc(NC(=S)NC(=O)/C=C/c3ccc([N+](=O)[O-])cc3)cc2)n1 | 3.9% |
| COc1ccc(N2C(=O)NC(=O)/C(=C\c3cc(Cl)c(OC)c(Cl)c3)C2=O)cc1 | 9.4% |
| COC(=O)c1c(-c2ccc(C(C)C)cc2)csc1N | 5.7% |
| CC1=NN(c2ccc([N+](=O)[O-])cc2)C(=O)/C1=C\N(C)C | -23.6% |
